# In PubChem BioAssay AID652104 (National Center for Advancing Translational Sciences (NCATS), 2013):
# About 7,200 (1.8%) of roughly 410,000 compounds were called active. This list was built around the results that the source calls inconclusive (neither active nor inactive); the mix of calls is not that of the screen. The call rests on the fitted dose curve; in most records, active means well fitted activation curve with a large enough effect; inconclusive means small, poorly fitted or top-dose-only effect, or another doubt; inactive means no such curve, though single readings can be large or run the other way. Potencies of inconclusive entries are left out as doubtful fits.
# Experiment: qHTS of TDP-43 Inhibitors; further: nearly all actives have a fitted effect of over 50% in size
# Settings: TDP-43 expressing yeast growth rescue, BacTiter-Glo, 24 h; series mostly up to 46.1 µM
# Procedure, shortened: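 Galactose-induced TDP-43 yeast, OD600=0.02, compound pinned; 24 hr, 30 deg C; BacTiter-Glo luminescence for growth. Inhibitors of TDP-43 toxicity read as activators.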
# Potency means the concentration at half of the fitted maximal effect; tags describe the fitted curve by direction and shape.
row,SMILES,Potency
1,CC1CCN(S(=O)(=O)c2ccc3c(ccc(=O)n3CC(=O)NCc3ccccc3)c2)CC1,inactive
2,COc1ccc(C2CC(c3ccccc3)=NN2c2ccc(N)cc2)cc1 (stereo not given),"inconclusive [activator, single point]"
3,COc1ccc(NC(=O)CN(C)C(=O)c2ccccc2CCc2ccccc2)cc1,"inconclusive [activator, single point]"
4,Cc1ccc(COn2c(-c3ccc(Cl)cc3Cl)nc3ncccc32)cc1,"inconclusive [activator, single point]"
5,COc1ccccc1C(=O)COC(=O)Cc1ccccc1F,"inconclusive [activator, single point]"
6,CC(=O)Nc1cccc(NC(=O)CSc2cn(CC(=O)N3CCCC3)c3ccccc23)c1,inactive
7,COC(=O)[C@@]12C[C@@H](CC(=O)NCCC(C)C)C(=O)N(CCc3ccc(OC)c(OC)c3)C1=CCC(C)(C)C2,"inconclusive [activator, partial curve]"
8,COc1ccc(NC(=O)c2cc3c(=O)n(C)c4cc(Cl)ccc4c3s2)cc1Cl,inactive
9,CCOc1ccc(CC(=O)NCCc2sc(-c3cccc(F)c3)nc2C)cc1,"inconclusive [activator, single point]"
10,O=C(NCCS(=O)(=O)N1CCN(c2ccc(F)cc2)CC1)c1ccccc1Br,"inconclusive [activator, full curve]"
11,Cc1ccc(OCCOc2cccc(Br)c2)c([N+](=O)[O-])n1,active: 14.1 µM
12,Cc1nc2c(-c3ccccc3)c(C)[nH]n2c(=O)c1Cc1ccc(Br)cc1,inactive
13,CCOc1ccc(NS(=O)(=O)c2ccc(Cl)c(N=Nc3c(O)[nH]c(=S)[nH]c3=O)c2)cc1Br,inactive
14,COc1ccc(CNC(=O)C2CCCN(C(=O)c3cnn(-c4ccc(F)cc4)c3-n3cccc3)C2)cc1 (stereo not given),inactive
15,O=C1C2C3C=CC(CC3)C2C(=O)N1c1ccc(Cl)cc1Cl (stereo not given),"inconclusive [activator, partial curve]"
16,O=C(O)c1cccc(-n2cccc2/C=C2/NC(=O)N(c3ccc(Cl)cc3)C2=O)c1,inactive
17,CCCCC[C@@H]1C=C(C(=O)O)[C@H](c2cccc(C)c2)N1S(=O)(=O)c1ccc(C)cc1,"inconclusive [activator, partial curve]"
18,COc1ccc(OC)c(NC(=O)c2cc(-c3ccc(F)cc3OC(C)C)n[nH]2)c1,active: 22.4 µM
19,COCCNc1nc2cc(-c3ccc(C)cc3)sc2c(=O)n1C,active: 11.2 µM
20,Cc1ccc(Cl)cc1Nc1nc(-c2cccnc2)cs1,active: 12.6 µM
